Among all 420,000 compounds or so, about 64,000 (15%) were called active. Inconclusive results, whose numbers are uncertain, are shown with a selection of clear calls. Calls come from the whole dose curve; as a rule, active = well fitted inhibition curve with a large enough effect; inconclusive = small, poorly fitted or top-dose-only effect; inactive = flat fitted curve, though single readings scatter. Potencies of inconclusive entries are left out as doubtful fits.
Test: qHTS for Inhibitors of human tyrosyl-DNA phosphodiesterase 1 (TDP1): qHTS in cells in absence of CPT; note: nearly all actives have a fitted effect of over 55% in size
Settings: DT40 Tdp1-/- hTDP1 cells, no CPT, ATP luminescence, 48 h; activity change, negative = growth inhibition: at 46.2 µM (top of the series) unless noted
How it was run: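 Luminescent ATP content (CellTiter-Glo) served as the growth readout. Knockout chicken DT40 cells expressing human TDP1 were exposed to compounds without camptothecin for a minimum 48 hr at 37 °C.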
% is set by controls: 0 for no effect and ±100 for the full control effect; potency is the fitted concentration of half-maximal effect; tags give direction and shape of the fitted curve.

Compound	activity change, negative = growth inhibition	Potency
CC(=O)Nc1c(-c2ccccc2)nc2cc(C)ccn12	inactive: 2.45%	–
COc1ccccc1-c1cc(C(F)(F)F)nc(S(=O)(=O)CCCC(=O)N2CCOCC2)n1	–	active: 2.31 µM
CCOc1ccc(CCNC(=O)CCc2cn(Cc3ccccc3F)c3ccccc23)cc1OCC	–	inconclusive [inhibitor, single point]
CCOC(=O)c1cccc(NC(=O)c2cc3sccc3n2Cc2ccc(Cl)cc2)c1	–	active: 18.4 µM
CC1(C)SC2C(C(=O)O)N=C(Cc3ccccc3)N2C1C(=O)O (configuration not stated)	inactive: -0.0251%	–
CC(Sc1nn(-c2ccc(Cl)cc2)c(=S)s1)C(=O)NCC1CCCO1 (configuration not stated)	–	inconclusive [inhibitor, single point]
COc1ccc(OC)c(N(CC(=O)NCc2ccccc2)S(=O)(=O)c2ccc(OC)c(OC)c2)c1	–	inconclusive [inhibitor, partial curve]
CCN(CC)S(=O)(=O)c1cccc(C(=O)NC(C(=O)NNC(=O)c2ccccc2F)C(C)C)c1 (configuration not stated)	–	inconclusive [inhibitor, single point]
Cc1cc(Cl)ccc1C(O)c1ncc(-c2ccc(F)cc2)[nH]1 (configuration not stated)	–	inconclusive [inhibitor, single point]
COc1ccc(-c2coc3cc4oc(=O)cc(-c5ccccc5)c4cc23)cc1F	–	active: 4.61 µM
Cc1ccc(C)c(OCc2cc(C(=O)N3CCN(c4cnccn4)CC3)no2)c1	–	inconclusive [inhibitor, single point]
COc1ccc(S(=O)(=O)N(C)C)cc1NC(=O)COc1ccc2c(c1)CCC2	–	inconclusive [inhibitor, single point]
O=C(c1cc(COc2ccc3ncccc3c2)on1)N1CCCCCC1	–	active: 2.59 µM
O=C(CC(=O)c1ccccc1)Nc1ccc([N+](=O)[O-])cc1	–	inconclusive [inhibitor, single point]
O=C(c1ccc2ccccc2n1)N1CCN(c2ccccn2)CC1	–	inconclusive [inhibitor, single point]
CC(=O)c1ccc(NC(=O)Cn2nc(C)cc2C)cc1	inactive: 4.34%	–
O=S(=O)(NCc1ccccc1)c1ccc(S(=O)(=O)N(Cc2ccccn2)C2CCCC2)cc1	–	active: 18.4 µM
COc1cc(OC)nc(Oc2ccccc2/C=N/O)n1	–	inconclusive [inhibitor, single point]
CC(Sc1nc2ccccc2n1C)C(=O)Nc1ccc(N2CCOCC2)cc1 (configuration not stated)	inactive: -8.9%	–
O=C(CC(c1ccccc1)c1ccccc1)NCc1cccnc1	–	inconclusive [inhibitor, single point]
CC(=O)Nc1ccc(N=C(C2=C(O)c3ccccc3C2=O)c2ccccc2)cc1	–	inconclusive [inhibitor, partial curve, poor fit]
Cc1ccccc1N1CCN(Cc2cccc(C(=O)O)c2)CC1	inactive: -3.07%	–
CC(=O)N1c2nc(C(C)C)nn2C2(CCCCC2)[C@@H]2CCCC[C@@H]21	–	active: 1.84 µM
CC(C)CC(COCc1ccc(C(F)(F)F)cc1)N1CCN(C(=O)c2ccc(C(F)(F)F)cc2)CCC1=O (configuration not stated)	–	inconclusive [inhibitor, single point]

Compound	activity change, negative = growth inhibition	Potency
O=C(CSc1nc2ccsc2c(=O)n1Cc1ccccc1)NCC1CCCO1 (configuration not stated)	inactive: -2.54%	–
Cc1c(NS(=O)(=O)c2ccc(C(=O)NCc3ccccc3)cc2)c(=O)n(-c2ccccc2)n1C	–	inconclusive [inhibitor, partial curve]
CCCC(=O)c1ccc(N2CCN(C(=O)OCC)CC2)c(F)c1	–	inconclusive [inhibitor, single point]
CC(=O)Nc1cc(Cl)ccc1OS(=O)(=O)c1ccc(C)cc1	–	inconclusive [inhibitor, partial curve]
COCCCn1c(=O)c2ccccc2n(Cc2ccccc2)c1=O	inconclusive: -32.4% [inhibitor]	–
CC(C)CN(CCCNC(=O)c1cc(=O)[nH]c2ccc(S(=O)(=O)N3CCCCCC3)cc12)CC(C)C	inconclusive: -31.5% [inhibitor]	–
O=C(NCc1ccco1)C1CC(c2ccc(C(F)(F)F)cc2)=NO1 (configuration not stated)	–	active: 11.6 µM
COc1ccc(C2C(C#N)=C(C)NC3=C2S(=O)(=O)c2ccccc23)cc1 (configuration not stated)	–	inconclusive [inhibitor, single point]
CCN1CCN(Cc2ccc(NC(=O)c3ccc(C)c(NC(=O)c4cccc(-c5cn[nH]c(=O)c5)c4)c3)cc2C(F)(F)F)CC1	–	active: 16.4 µM
COc1ccc(C2=Nc3ccccc3NC(=O)C2N(C(=O)c2cc3ccccc3[nH]2)c2ccccc2)cc1 (configuration not stated)	–	inconclusive [inhibitor, single point]
COc1ccc(CCNC(=O)CNS(=O)(=O)c2ccc(Cl)cc2)cc1	–	inconclusive [inhibitor, single point]
CCn1c(NCc2ccco2)nc2c1c(=O)n(C)c(=O)n2C	–	active: 11.6 µM
O=C(Oc1c(-c2ccccc2)c(=O)n2c3c(cccc13)CC2)c1ccc(Cl)cc1	–	active: 20.6 µM
CCOc1ccc2oc(=O)cc(CN3CCN(c4cc(C)ccc4C)CC3)c2c1	–	active: 16.4 µM
Cc1cc(N2C(=O)C(=O)/C(=C(/O)c3ccc(F)cc3)C2c2ccc(Cl)cc2)no1 (configuration not stated)	inconclusive: -32.1% [inhibitor]	–
Nc1ccc2c(c1)-c1ccc(F)cc1C2=O	–	inconclusive [inhibitor, single point]
COc1ccc(C2=NN(C3=NN=C(N)Cc4ncnn43)C(O)(C(F)(F)F)C2)cc1 (configuration not stated)	inactive: 9.1%	–
C=C(C)C1CC[C@]2(CO)CC[C@@]3(C)[C@H](CCC4[C@@]5(C)CCC(O)C(C)(C)C5CC[C@@]43C)C12 (some centres not stated)	inactive: -19.2%	–
Cc1ccc(OCC(=O)OCC(=O)NC2CCS(=O)(=O)C2)cc1C (configuration not stated)	inactive: -4.82%	–
CC(C)CC(=O)Nc1cccc(-c2csc(-c3ccccc3)n2)c1	–	inconclusive [inhibitor, single point]
CCCc1n[nH]c2c1/C(=N\OCC)CC(C)(C)C2	inactive: -0.903%	–
COc1ccc(-c2nnc(SCC(=O)Nc3cc(S(=O)(=O)N4CCCCC4)ccc3Cl)n2N)cc1	–	inconclusive [inhibitor, single point]
COc1cc2[nH]c(C(=O)N3CCN(c4ccccc4F)CC3)cc2c(OC)c1OC	inconclusive: -33.3% [inhibitor]	–
COc1ccc(OC)c(C(c2nnnn2C2CCCC2)N2CCc3ccccc3C2)c1 (configuration not stated)	–	inconclusive [inhibitor, single point]

Compound	activity change, negative = growth inhibition	Potency
COc1ccc(S(=O)(=O)N2CCCCC2)cc1Br	inactive: -14.8%	–
Cc1nc2ccc(NC(=O)Cc3cccs3)cc2s1	–	inconclusive [inhibitor, single point]
O=c1[nH]c(NNC(=S)NC2CCCCC2)nc2c1C1(CCCC1)Cc1ccccc1-2	inactive: -1.04%	–
Cc1cccc2sc(NC(=O)CN(C)S(=O)(=O)c3cccs3)nc12	–	inconclusive [inhibitor, partial curve]
COc1ccc(NC(=O)N2CC[C@@]3(CCCN(C(C)=O)C3)C2)cc1	inactive: 2.74%	–
C=CCNC(=O)C1CC2c3ccccc3C1c1ccccc12 (configuration not stated)	–	inconclusive [inhibitor, partial curve]
O=C(c1cc(C(F)(F)F)cc(C(F)(F)F)c1)N1CCC[C@@]2(CCN(c3ccccc3)C2)C1	–	inconclusive [inhibitor, single point]
CCOC(=O)C1=C(O)/C(=C/c2cn(CC(=O)N3CCCC3)c3ccccc23)SC1=Nc1ccccc1	–	active: 18.4 µM
COc1cc2nc(Cl)nc(NC(C)C)c2cc1OC	–	active: 15.8 µM
O=C(NNC1=NS(=O)(=O)c2ccccc21)c1ccc([N+](=O)[O-])cc1	inactive: -26.7%	–
CCc1ccc(C(C)NC(=S)NCc2ccc(F)cc2)cc1 (configuration not stated)	–	inconclusive [inhibitor, single point]
COc1cc(OC)c(C(=O)OCC(=O)NC23CC4CC(CC(C4)C2)C3)cc1OC	inactive: -24.9%	–
CCOC(=O)C(=C1Nc2ccccc2N1)n1c(-c2ccco2)nc2ccccc21	–	inconclusive [inhibitor, single point]
Cc1cccc(N2CCN(C(=O)c3cccn4c(=O)c5cc(Cl)ccc5nc34)CC2C)c1 (configuration not stated)	–	inconclusive [inhibitor, single point]
CC(OC(=O)CNC(=O)c1sc2ccccc2c1Cl)c1ccccc1 (configuration not stated)	inactive: -6.21%	–
CC1CN(C(=O)c2cc(COc3c(F)cccc3F)on2)CCN1C (configuration not stated)	inactive: -0.627%	–
CSc1ccc(/C=N\NC(=O)CC(=O)NC(C)C)cc1	inactive: -2.5%	–
COc1ccccc1CCC(=O)N(Cc1ccccc1)c1c(N)n(Cc2ccccc2)c(=O)[nH]c1=O	–	inconclusive [inhibitor, single point]
Cc1ccc(Cn2c(SCC(=O)NCc3ccco3)nc3ccsc3c2=O)cc1	inactive: -15.9%	–
Cc1cc(S(=O)(=O)NCC(c2ccc3c(c2)OCO3)N2CCOCC2)ccc1F (configuration not stated)	–	inconclusive [inhibitor, single point]
CN1CCc2c(sc3c2C(=O)NC(c2ccccc2)N3)C1 (configuration not stated)	–	active: 23.1 µM
CCCCn1c(SCC(=O)NCc2ccc3c(c2)OCO3)nnc1C(CC)N(C)C (configuration not stated)	inactive: -3.83%	–
OC[C@@H]1CN(Cc2ccc(-c3ccccc3)cc2)C[C@H](n2cnc3c(NCc4ccc(F)cc4)ncnc32)O1	–	active: 3.66 µM
CCOC(=O)c1ccc(N2C(=O)CC(SCC(=O)Nc3ccc(S(N)(=O)=O)cc3)C2=O)cc1 (configuration not stated)	–	inconclusive [inhibitor, single point]

— PubChem BioAssay AID686978 (National Center for Advancing Translational Sciences (NCATS), 2013)
